Data taken from ChEMBL document CHEMBL5606460, “ASAP - DENV-2 NS2B-NS3 protease fluorescence single point” (2024).
Screen size: about 2,000 compounds; about 110 (5.5%) showed an effect of 50% or more. The list shows a part of the results.

Biological target: Genome polyprotein (dengue virus type 2) (UniProt P29990)
[1] = Thailand/16681/1984, Concentration 25.0 uM, Number of replicates 1.0

c1ccc2c(CN3CCC(c4c[nH]c5cccnc45)CC3)c[nH]c2c1
inhibition (Thailand/16681/1984, Concentration 49.5 uM, Number of replicates 2.0, Standard deviation 0.05605868026736993 %): 2.08%
inhibition (Thailand/16681/1984, Concentration 99.01 uM, Number of replicates 2.0, Standard deviation 0.054425742768663854 %): 4.27%
inhibition (Thailand/16681/1984, Concentration 198.0 uM, Number of replicates 2.0, Standard deviation 0.20137561913632315 %): 9.4%

O=Cc1ccc(N2CCC(C(=O)Nc3ccc(F)cc3C(F)(F)F)CC2)cc1
inhibition [1]: 12.5%

CN(CCC=C1c2ccccc2CCc2ccccc21)C(=O)C1CCN(c2ccc(C=O)cc2)CC1
inhibition [1]: -6.79%

Cc1cc(CO)c2cccc(Cc3cccc(NC(=O)c4cnn(Cc5c(C)noc5C)c4)c3)c2n1
inhibition (Thailand/16681/1984, Concentration 49.95 uM, Number of replicates 2.0, Standard deviation 1.4870028556253494 %): -3.7%
inhibition (Thailand/16681/1984, Concentration 99.9 uM, Number of replicates 2.0, Standard deviation 1.816697484259061 %): -0.8%

N#Cc1ccc(NC(=O)c2cccc(OCc3c(Cl)cccc3Cl)c2)cc1
inhibition (Thailand/16681/1984, Concentration 49.5 uM, Number of replicates 2.0, Standard deviation 17.67811325168481 %): 6.75%
inhibition (Thailand/16681/1984, Concentration 99.01 uM, Number of replicates 2.0, Standard deviation 0.20698957935797424 %): -7.61%
inhibition (Thailand/16681/1984, Concentration 198.0 uM, Number of replicates 2.0, Standard deviation 0.09782384691814931 %): -4.23%

CCS(=O)(=O)Cn1cc(C2CCNCC2)c(C)n1
inhibition (Thailand/16681/1984, Concentration 49.5 uM, Number of replicates 2.0, Standard deviation 2.7056603724842327 %): -1.53%
inhibition (Thailand/16681/1984, Concentration 99.01 uM, Number of replicates 2.0, Standard deviation 2.294245912720445 %): -0.434%
inhibition (Thailand/16681/1984, Concentration 198.0 uM, Number of replicates 2.0, Standard deviation 1.6780636236445106 %): 0.44%

O=Cc1ccc(N2CCC(C(=O)N3CCCN(C(=O)c4cccs4)CC3)CC2)cc1
inhibition [1]: 12.9%

Cc1cc(CO)c2cccc(NC(=O)[C@@H](N)CC(N)=O)c2n1
inhibition (Thailand/16681/1984, Concentration 49.95 uM, Number of replicates 2.0, Standard deviation 1.8295341709834483 %): -3.67%
inhibition (Thailand/16681/1984, Concentration 99.9 uM, Number of replicates 2.0, Standard deviation 6.049352845396267 %): -1.2%

COc1cc(C(=O)N2CCCCC2)nc(N2CCNCC2)n1
inhibition (Thailand/16681/1984, Concentration 49.5 uM, Number of replicates 2.0, Standard deviation 0.534757190857495 %): -6.02%
inhibition (Thailand/16681/1984, Concentration 99.01 uM, Number of replicates 2.0, Standard deviation 0.5656980352863125 %): -4.45%
inhibition (Thailand/16681/1984, Concentration 198.0 uM, Number of replicates 2.0, Standard deviation 0.017532920393137873 %): -3.65%

CC(=O)N(C)C1CCN(C(=O)C2CCN(c3ccc(C=O)cc3)CC2)CC1
inhibition [1]: 12.3%

C[C@H](NC(=O)C1CCN(c2ccc(C=O)cc2)CC1)c1ccc(Br)cc1
inhibition [1]: 12.7%

Nc1ccnc2c(Cl)cccc12
inhibition (Thailand/16681/1984, Concentration 49.95 uM, Number of replicates 2.0, Standard deviation 2.736837302484984 %): -9.22%
inhibition (Thailand/16681/1984, Concentration 99.9 uM, Number of replicates 2.0, Standard deviation 4.13445849353631 %): -8.19%

O=C(Cn1sc2ccccc2c1=O)Nc1cccc(OCc2cn(CC(=O)Nc3ccccc3Oc3ccccc3)nn2)c1
inhibition (Thailand/16681/1984, Concentration 49.5 uM, Number of replicates 2.0, Standard deviation 1.838020691812208 %): 3.7%
inhibition (Thailand/16681/1984, Concentration 99.01 uM, Number of replicates 2.0, Standard deviation 1.6110447397155796 %): 9.16%
inhibition (Thailand/16681/1984, Concentration 198.0 uM, Number of replicates 2.0, Standard deviation 2.762343563679413 %): 9.79%

O[C@@H]1CNC[C@H]1c1c[nH]c2ccccc12
inhibition (Thailand/16681/1984, Concentration 49.5 uM, Number of replicates 2.0, Standard deviation 0.14303300114814788 %): -1.88%
inhibition (Thailand/16681/1984, Concentration 99.01 uM, Number of replicates 2.0, Standard deviation 0.7725694770279107 %): -1.43%
inhibition (Thailand/16681/1984, Concentration 198.0 uM, Number of replicates 2.0, Standard deviation 0.830452430949514 %): -0.825%

O=Cc1ccc(N2CCC(C(=O)Nc3ncnc4c3ncn4CCO)CC2)cc1
inhibition [1]: 14.1%

c1ccc2sc(C3CCN(Cc4c[nH]c5ccccc45)CC3)nc2c1
inhibition (Thailand/16681/1984, Concentration 49.5 uM, Number of replicates 2.0, Standard deviation 0.9264282755377183 %): -2.4%
inhibition (Thailand/16681/1984, Concentration 99.01 uM, Number of replicates 2.0, Standard deviation 1.1791713356742093 %): -0.136%
inhibition (Thailand/16681/1984, Concentration 198.0 uM, Number of replicates 2.0, Standard deviation 0.7079476951080369 %): 1.66%

CC(CNC(=O)C1CCN(c2ccc(C=O)cc2)CC1)(c1ccccc1)c1ccccc1
inhibition [1]: 1.2%

O=Cc1ccc(N2CCC(C(=O)Nc3c(Cl)cc(Cl)cc3Br)CC2)cc1
inhibition [1]: 13.4%

CNC(=O)C[C@H]1CCCCN1S(=O)(=O)c1ccc(Oc2ccccc2Cl)cc1
inhibition (Thailand/16681/1984, Concentration 49.5 uM, Number of replicates 2.0, Standard deviation 0.6403061336392061 %): -1.92%
inhibition (Thailand/16681/1984, Concentration 99.01 uM, Number of replicates 2.0, Standard deviation 0.5926288072768489 %): -0.478%
inhibition (Thailand/16681/1984, Concentration 198.0 uM, Number of replicates 2.0, Standard deviation 0.4290957159902598 %): 1.47%

Cc1cc(CO)c2cccc(Cc3ccccc3C(=O)NCC(=O)O)c2n1
inhibition (Thailand/16681/1984, Concentration 49.95 uM, Number of replicates 2.0, Standard deviation 0.8422599232434016 %): 38.5%
inhibition (Thailand/16681/1984, Concentration 99.9 uM, Number of replicates 2.0, Standard deviation 0.5627042603428867 %): 64.9%

CCn1nnc(Cn2ncc(C3CCNCC3)c2C)n1
inhibition (Thailand/16681/1984, Concentration 49.5 uM, Number of replicates 2.0, Standard deviation 0.7148158612476752 %): 0.727%
inhibition (Thailand/16681/1984, Concentration 99.01 uM, Number of replicates 2.0, Standard deviation 0.39019518633906886 %): 1.37%
inhibition (Thailand/16681/1984, Concentration 198.0 uM, Number of replicates 2.0, Standard deviation 0.9028682715138255 %): 2.51%
